This note sets out measurements from ChEMBL document CHEMBL5606458, “ASAP - ZIKV NS2B-NS3 protease fluorescence single point” (2024).

This test deals with Nonstructural protein 3 (Zika virus) (UniProt A0A024AXB9).
Setting [1] is: PRVABC59, Concentration 15.0 uM, Number of replicates 1.0.
The mark [2] stands for this setting: PRVABC59, Concentration 50.0 uM, Number of replicates 1.0.
Where [3] appears, read: PRVABC59, Concentration 10.0 uM, Number of replicates 1.0.

Among all 2,700 compounds or so, about 160 (5.9%) showed an effect of 50% or more. Some of the results follow.

UniProt A0A024AXB9, sequence (A0A024AXB9 as listed by the source): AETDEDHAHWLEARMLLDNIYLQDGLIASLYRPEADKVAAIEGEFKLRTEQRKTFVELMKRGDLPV

For `O=C(NCCc1cc(Cl)cc(Cl)c1)c1cc(Cl)ccc1NS(=O)(=O)c1ccc(Oc2ccccc2Cl)cc1`, the inhibition under setting [1] was determined as 20.6%.
Consider `O=C(NCc1cc(F)ccc1Br)c1cc(Cl)ccc1NS(=O)(=O)c1ccc(Oc2ccccc2Cl)cc1`, for which the inhibition under setting [1] came out at 37.1%.
Take `COc1cccc(N2C[C@@H](NC(=O)c3cc(Cl)ccc3NS(=O)(=O)c3ccc(Oc4ccccc4Cl)cc3)CC2=O)c1`: the inhibition under setting [1] is 28.5%.
Consider `Cc1cc(CO)c2cccc(C[C@H](NC(=O)C3(C(N)=O)CC3)C(=O)O)c2n1`, for which the inhibition was -7.52% (PRVABC59, Concentration 49.95 uM, Number of replicates 2.0, Standard deviation 1.395044164145976 %) and -6.53% (PRVABC59, Concentration 99.9 uM, Number of replicates 2.0, Standard deviation 1.2344633226203177 %).
Consider `CC(C)(C)N(Cc1ccsc1)C(=O)c1cc(Cl)ccc1NS(=O)(=O)c1ccc(Oc2ccccc2Cl)cc1`, for which the inhibition under setting [1] amounted to 44.3%.
Regarding `O=Cc1ccc(N2CCC(C(=O)N3CCN(C(=O)C(F)(F)F)CC3)CC2)cc1`, the inhibition under setting [2] amounted to 22.1%.
For the compound `O=C(NCCOc1ccccc1Cl)c1cc(Cl)ccc1NS(=O)(=O)c1ccc(Oc2ccccc2Cl)cc1`, the inhibition under setting [1] is 26.3%.
With `Cc1c(Br)cccc1NC(=O)C1CCN(c2ccc(C=O)cc2)CC1`, under setting [2], the inhibition turned out to be 24.4%.
With `Cc1ccc(Cl)c(CNC(=O)c2cc(Cl)ccc2NS(=O)(=O)c2ccc(Oc3ccccc3Cl)cc2)c1`, the inhibition under setting [1] came out at 29.4%.
As for `Nc1nccc(N2CCN(c3ncnc4sccc34)CC2)n1`, the inhibition is -1.62% (PRVABC59, Concentration 49.5 uM, Number of replicates 2.0, Standard deviation 0.8346490453393044 %); 0.185% (PRVABC59, Concentration 99.01 uM, Number of replicates 2.0, Standard deviation 0.39347744065548357 %); 2.76% (PRVABC59, Concentration 198.0 uM, Number of replicates 2.0, Standard deviation 1.4924321283568258 %).
Regarding `C[C@@H](NC(=O)c1cc(Cl)ccc1NS(=O)(=O)c1ccc(Oc2ccccc2Cl)cc1)c1cccc(Br)c1`, the inhibition under setting [1] was 35.8%.
Consider `CNC(=O)c1ccccc1NS(=O)(=O)c1ccc(Oc2ccccc2Cl)cc1`, for which the inhibition (PRVABC59, Concentration 49.5 uM, Number of replicates 2.0, Standard deviation 3.4125681151786877 %) was determined as 5.19%; the inhibition (PRVABC59, Concentration 99.01 uM, Number of replicates 2.0, Standard deviation 2.1023857032787294 %) amounted to 2.73%; the inhibition (PRVABC59, Concentration 198.0 uM, Number of replicates 2.0, Standard deviation 1.6453455309076856 %) is -2.99%.
For `O=Cc1ccc(N2CCC(C(=O)Nc3cc(Cl)cc([N+](=O)[O-])c3O)CC2)cc1`, under setting [2], the inhibition is 93.4%.
On to `CS(=O)(=O)C1(CNC(=O)[C@]2(c3ccc(F)cc3)CCCNC2)CC1`, for which the inhibition was -0.908% (PRVABC59, Concentration 49.5 uM, Number of replicates 2.0, Standard deviation 0.16738056118331518 %); -0.043% (PRVABC59, Concentration 99.01 uM, Number of replicates 2.0, Standard deviation 0.5953422319206924 %); 0.085% (PRVABC59, Concentration 198.0 uM, Number of replicates 2.0, Standard deviation 0.5896360543944994 %).
Regarding `CN1CCN(CCCNC(=O)C2CCN(c3ccc(C=O)cc3)CC2)CC1`, the inhibition under setting [2] turned out to be 19.4%.
As for `O=Cc1ccc(N2CCC(C(=O)N3CCN(c4nsc5ccccc45)CC3)CC2)cc1`, under setting [2], the inhibition is -2.82%.
As to `COc1ccccc1N1CCN(C(=O)c2ccccc2Cc2cccc3c(CO)cc(C)nc23)CC1`, the inhibition (PRVABC59, Concentration 49.95 uM, Number of replicates 2.0, Standard deviation 0.5662936545494685 %) turned out to be 2.1% and the inhibition (PRVABC59, Concentration 99.9 uM, Number of replicates 2.0, Standard deviation 0.3250944897795658 %) is 8.89%.
For `C[C@H](NC(=O)C1CCN(c2ccc(C=O)cc2)CC1)c1ccc2c(c1)CCCC2`, the inhibition under setting [3] stood at 8.94%.
For `C[C@@H]1CN(CCNC(=O)C2CCN(c3ccc(C=O)cc3)CC2)C[C@H](C)O1`, the inhibition under setting [2] is 22.3%.
For `COC(=O)c1cccc(C(=O)Nc2ccncc2C)c1`, the inhibition was -2.85% (PRVABC59, Concentration 49.5 uM, Number of replicates 2.0, Standard deviation 0.9623069604443751 %); -1.13% (PRVABC59, Concentration 99.01 uM, Number of replicates 2.0, Standard deviation 2.0559193717779234 %); -0.144% (PRVABC59, Concentration 198.0 uM, Number of replicates 2.0, Standard deviation 0.22663679904083914 %).
Take `Cc1cnccc1NC(=O)c1c(C)nn(Cc2ccccc2)c1Cl`: the inhibition was -0.561% (PRVABC59, Concentration 49.5 uM, Number of replicates 2.0, Standard deviation 0.753332447596911 %); 1.32% (PRVABC59, Concentration 99.01 uM, Number of replicates 2.0, Standard deviation 0.1025743025075092 %); 2.02% (PRVABC59, Concentration 198.0 uM, Number of replicates 2.0, Standard deviation 0.3867554977383978 %).
Consider `Cc1cc(C)cc(OCCN(C)C(=O)c2cc(Cl)ccc2NS(=O)(=O)c2ccc(Oc3ccccc3Cl)cc2)c1`, for which the inhibition under setting [1] worked out at 15.3%.
For `CNC(=O)c1cn(S(=O)(=O)c2ccc(Oc3ccccc3Cl)cc2)c2ccc(Cl)cc12`, the inhibition (PRVABC59, Concentration 49.5 uM, Number of replicates 2.0, Standard deviation 2.909823478813945 %) was 6.62%; the inhibition (PRVABC59, Concentration 99.01 uM, Number of replicates 2.0, Standard deviation 2.872825289317142 %) amounted to 9.28%; the inhibition (PRVABC59, Concentration 198.0 uM, Number of replicates 2.0, Standard deviation 2.996878974524955 %) is 16%.
For the compound `C[C@H](NC(=O)c1cc(Cl)ccc1NS(=O)(=O)c1ccc(Oc2ccccc2Cl)cc1)c1cc(F)ccc1F`, the inhibition under setting [1] turned out to be 40.3%.
Turning to `Cc1ccc(Cl)c(CNC(=O)C2CCN(c3ccc(C=O)cc3)CC2)c1`, the inhibition under setting [3] was found to be 8.13%.
On to `COc1cc(CC(=O)N2CCN(C(C)=O)CC2)nc(N2CCNCC2)n1`, for which the inhibition was -5.36% (PRVABC59, Concentration 49.5 uM, Number of replicates 2.0, Standard deviation 1.7917997603368567 %); -6.23% (PRVABC59, Concentration 99.01 uM, Number of replicates 2.0, Standard deviation 1.123055377839713 %); -6.93% (PRVABC59, Concentration 198.0 uM, Number of replicates 2.0, Standard deviation 3.659924091579062 %).
In the case of `O=C(Nc1ccc(F)c(Br)c1)c1cc(Cl)ccc1NS(=O)(=O)c1ccc(Oc2ccccc2Cl)cc1`, under setting [1], the inhibition was determined as 48.7%.
As to `CNC(=O)c1cc(Cl)cc(OC)c1NS(=O)(=O)c1ccc(Oc2ccccc2Cl)cc1`, the inhibition runs as follows: (PRVABC59, Concentration 49.5 uM, Number of replicates 2.0, Standard deviation 0.214449202759478 %) -0.362%; (PRVABC59, Concentration 99.01 uM, Number of replicates 2.0, Standard deviation 1.325070417351507 %) 0.793%; (PRVABC59, Concentration 198.0 uM, Number of replicates 2.0, Standard deviation 3.632092409628181 %) -2.32%.
Regarding `O=C(N[C@H](c1ccccc1)c1ccco1)c1cc(Cl)ccc1NS(=O)(=O)c1ccc(Oc2ccccc2Cl)cc1`, the inhibition under setting [1] turned out to be 53.4%.
With `COc1ccccc1C1CCN(C(=O)C2CCN(c3ccc(C=O)cc3)CC2)CC1`, the inhibition under setting [2] stood at 25%.
Consider `Cc1cccc(N2CCN(C(=O)c3cc(Cl)ccc3NS(=O)(=O)c3ccc(Oc4ccccc4Cl)cc3)C[C@@H]2C)c1`, for which the inhibition under setting [1] was 7.4%.
Take `Cc1ccc([C@H](CCO)NC(=O)C2CCN(c3ccc(C=O)cc3)CC2)cc1`: the inhibition under setting [3] was 20.1%.
Regarding `CCCCCC(=O)N[C@H](C(=O)Nc1cccc(C(N)=O)c1)c1ccc(OCc2ccccc2)cc1`, the inhibition is 1.48% (PRVABC59, Concentration 49.5 uM, Number of replicates 2.0, Standard deviation 1.8849000413549961 %); 0.647% (PRVABC59, Concentration 99.01 uM, Number of replicates 2.0, Standard deviation 2.168670599840843 %); 2.61% (PRVABC59, Concentration 198.0 uM, Number of replicates 2.0, Standard deviation 0.28169942020317307 %).
In the case of `O=C(NCc1cccc(Br)c1)c1cc(Cl)ccc1NS(=O)(=O)c1ccc(Oc2ccccc2Cl)cc1`, the inhibition under setting [1] is 28.6%.
As for `c1cncc(CN2CCC(c3c[nH]c4cccnc34)CC2)c1`, the inhibition reads like this: (PRVABC59, Concentration 49.5 uM, Number of replicates 2.0, Standard deviation 1.3589806231617505 %) -0.654%; (PRVABC59, Concentration 99.01 uM, Number of replicates 2.0, Standard deviation 1.9362742679977742 %) -0.837%; (PRVABC59, Concentration 198.0 uM, Number of replicates 2.0, Standard deviation 2.5868999732011755 %) -0.675%.
Consider `COc1cc(COc2ccccc2CO)nc(N2CCNCC2)n1`, for which the inhibition (PRVABC59, Concentration 49.5 uM, Number of replicates 2.0, Standard deviation 2.0450547782422097 %) was -0.123%; the inhibition (PRVABC59, Concentration 99.01 uM, Number of replicates 2.0, Standard deviation 1.583334198344031 %) is 3.21%; the inhibition (PRVABC59, Concentration 198.0 uM, Number of replicates 2.0, Standard deviation 0.5332257429700031 %) came to 8.92%.
For `CN1CCC(N(C(=O)c2cc(Cl)ccc2NS(=O)(=O)c2ccc(Oc3ccccc3Cl)cc2)C2CCN(C)CC2)CC1`, the inhibition under setting [1] worked out at 10%.
`O=Cc1ccc(N2CCC(C(=O)N[C@H]3CCc4ccccc4NC3=O)CC2)cc1`: under setting [2], the inhibition worked out at 29.5%.
Take `O=C(NCc1cccc(OC(F)F)c1)c1cc(Cl)ccc1NS(=O)(=O)c1ccc(Oc2ccccc2Cl)cc1`: the inhibition under setting [1] worked out at 33.5%.
For the compound `O=C(c1ccc(F)cc1)[C@H]1CCCN(C(=O)c2cc(Cl)ccc2NS(=O)(=O)c2ccc(Oc3ccccc3Cl)cc2)C1`, under setting [1], the inhibition was determined as 10.2%.
With `O=Cc1ccc(N2CCC(C(=O)N(Cc3ccccc3)[C@@H](CO)c3ccccc3)CC2)cc1`, the inhibition under setting [2] worked out at 24.2%.

By inhibition is commonly meant the drop in the measured response relative to a control, in per cent.
